From the supplement of paper PMC11417369
The list shows a part of the results.

Each sequence was assayed on PfAP2-HC AP2 domain (GST-tagged) (assay: gcPBM binding intensity (ln(normalized median fluorescence intensity)); higher = stronger DNA binding).
How it was run: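 GST-fused DNA-binding domains of P. falciparum, expressed in E. coli, were applied at about 25 μg on average for 1 h to an Agilent 4 × 180k array of primer-extended double-stranded 36-bp intergenic genomic probes and negative controls. Binding intensity is the highest Masliner-normalised natural-log median intensity across replicate spots of either probe orientation, measured with Alexa488 anti-GST antibody and a 488 nm scan.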

Compared with “TACCTTTTTTATGTTGCACACTGGGATGTTTTCTAA [CACACA_site1653]”, “ATTCATATTTTTCAAGTGCGCATTAAAATATTAACC [GTGCAC_site9741]” is lower in “gcPBM binding intensity (ln)” value: 9.95 for the first, 9.63 for the second.

Going from “ATGTCATATATATGTTGTACGAGTTTGTTTATGTAT [XGTACX_site1150]” to “TTCATTTTATAAAAAGCACACATATAGTTATATGCA [CACACA_site9228]”, the “gcPBM binding intensity (ln)” value falls from 9.91 to 9.58.

Compared with “AGTTTACATTAAATCACGCACACAAAAAAAAAAAAA [CACACA_site2419]”, “AATGTGCAGAAAAGTGGTACATATGATTGTTAAGAG [XGTACX_site1038]” is lower in “gcPBM binding intensity (ln)” value: 10 for the first, 9.86 for the second.

Compared with “CCATGATTATTAGATTGTACATAACATACAAATTGA [XGTACX_site314]”, “AATATATTTTTTTTTGGTACACAAGCACATCTATAC [XGTACX_site2183]” is higher in “gcPBM binding intensity (ln)” value: 9.39 for the first, 9.68 for the second.

First: TTTCGATTATGTTTTTGTACGCAATATATTAATTCT [XGTACX_site3634]
Second: GTAGTAATAAATCTAGTGCATTATATATAACAAAAA [GTGCAC_site9803]
The “gcPBM binding intensity (ln)” value of the first is lower: 9.64 for the first, 9.72 for the second.

Compared with “TTTTTTTCTTTTTTTTGTACTCATACATACTATCAT [XGTACX_site607]”, “AAAAATGTGCACACGCGTACACACAAAAAAAGAAAA [XGTACX_site4097]” is higher in “gcPBM binding intensity (ln)” value: 9.69 for the first, 10.2 for the second.

Going from “AAAATATATCAAAATAGTACATAATTTTTTAAGAAT [XGTACX_site3515]” to “AGTTATGCATCTTAGGTGCTATGCCCAATTTATTTT [GTGCAC_site9977]”, the “gcPBM binding intensity (ln)” value rises from 9.63 to 9.72.

“AAAAAAAAAAAAAATGCACACATATATTTCCATATA [CACACA_site8416]” and “TTGCCTTAAAAAGGAACACACATGCTTTTTTTAGTT [CACACA_site938]” are the same in “gcPBM binding intensity (ln)” value: 9.78 for the first, 9.78 for the second.

Compared with “AACTTACTCTTTACAAGTACGTAAAAGAAATAGAAA [XGTACX_site1782]”, “AATAAAGCAATAAATACACACATATATATATATATA [CACACA_site2934]” is higher in “gcPBM binding intensity (ln)” value: 9.47 for the first, 9.75 for the second.

Compared with “TATATAAAAAATAGGTGGTCAACTTAAATATTTTAT [XGTACX_site4495]”, “TATTGCCCTTGACACACACACATATAAATAAATATA [CACACA_site7220]” is higher in “gcPBM binding intensity (ln)” value: 9.67 for the first, 10.3 for the second.

Going from “TTATGGGACTCAAATACATGCAAAAATATTTTTAAG [TGCATGCA_site559]” to “TAAGGTTAAATAATATGTACATATTATTATATATAT [XGTACX_site6953]”, the “gcPBM binding intensity (ln)” value rises from 9.44 to 9.61.

First: TTAAACCGTGGGAGCACACACACACCCAGACACATA [CACACA_site4337]
Second: AAATATGTATATATATATATATATATATATATATAT [GTGCAC_negctrl_site335]
The “gcPBM binding intensity (ln)” value of the first is higher: 10.4 for the first, 9.56 for the second.

Compared with “AATATATAAGTCTACTGTACCCAAAATAAAATTTAT [XGTACX_site8727]”, “GTATATATACATAAATGTACATATATATAAAAAATG [XGTACX_site3271]” is higher in “gcPBM binding intensity (ln)” value: 9.6 for the first, 9.73 for the second.

Going from “ATATATCCAAATAGATTACATATATATATATAGATA [TGCATGCA_negctrl_site277]” to “AAATATAATAAAATGACACACGCATATATATATATA [CACACA_site8900]”, the “gcPBM binding intensity (ln)” value rises from 9.5 to 9.85.

Going from “ATATATTTATATATTGCACACAAAAAAAAAAAAAAA [CACACA_site8468]” to “AACATTATAAGACACACACACACATATATAAATATA [CACACA_site6622]”, the “gcPBM binding intensity (ln)” value rises from 9.52 to 11.2.

Going from AAATAAGAACATAGAATGCACTTTTTTTTTTTTTCC to “GTAATTATATACATACGTACATACACATATGTATAT [XGTACX_site4149]”, the “gcPBM binding intensity (ln)” value rises from 9.51 to 9.85.

Going from “GGATATATGAAACATATTGAAAAACCGTTTAGTACA [CACACA_negctrl_site132]” to “TAATTTTTGTAAACAGTCATGGATTCAAAAAAAAAA [CACACA_negctrl_site593]”, the “gcPBM binding intensity (ln)” value falls from 9.72 to 9.35.

First: TTACTATGTAAACACACATGCAATATATGTTAAGCC [TGCATGCA_site253]
Second: TTATATGAAAATTATTGTACAATCTATAAAAAAAAT [XGTACX_site4194]
The “gcPBM binding intensity (ln)” value of the first is higher: 9.76 for the first, 9.45 for the second.

First: TAATAATCAAACTATACACACATAAATAAATATATA [CACACA_site156]
Second: AAGGAAATAAGAAAAAGTACACATAAGTATATAACA [XGTACX_site1173]
The “gcPBM binding intensity (ln)” value of the first is higher: 9.95 for the first, 9.82 for the second.

Compared with “CACGTGTAAATAGTTTTACAATATCTCGATATGTAT [CACACA_negctrl_site785]”, “TGTATGTTTATTTATCGTACATATATATATATATAT [XGTACX_site7315]” is higher in “gcPBM binding intensity (ln)” value: 9.58 for the first, 10.1 for the second.

Compared with “TTTTATATATTATATACACACATATATATATATATA [CACACA_site2999]”, “AGGAAAAAAAAAATGTGTACTTAAAAAAAAAAAATT [XGTACX_site1471]” is lower in “gcPBM binding intensity (ln)” value: 9.72 for the first, 9.47 for the second.

First: AATAAATAAATATATACACACATATATCTGTACATA [CACACA_site9034]
Second: CGTTTATATTTTAACTGTACTCAAAAAGTGCATTGT [XGTACX_site6072]
The “gcPBM binding intensity (ln)” value of the first is higher: 10.1 for the first, 9.55 for the second.

Going from “TTTTATCATATTTATTGTACACATAATATACATATC [XGTACX_site1145]” to “AAATTAGAATTAGGAACACACATATTTATATTTATA [CACACA_site7450]”, the “gcPBM binding intensity (ln)” value falls from 9.99 to 9.74.

First: TTTATTCTCCGACACACACACATATATTTATTTATA [CACACA_site7377]
Second: ATATATAAAAAATGTGGTACATTCATTTATTATACA [XGTACX_site3495]
The “gcPBM binding intensity (ln)” value of the first is higher: 10.5 for the first, 9.9 for the second.

Compared with “CATTTTATAAAAAGCACACATATAGTTATATGCACA [CACACA_site3691]”, “TAAATTATAATAAATACACACAAATTATAATTCTAT [CACACA_site3942]” is higher in “gcPBM binding intensity (ln)” value: 9.6 for the first, 9.74 for the second.

First: TTTGAATCCTTATATACACACATTATATAATATTAT [CACACA_site4472]
Second: TATATATATATACATTGTACATTATTGATTATAACA [XGTACX_site1678]
The “gcPBM binding intensity (ln)” value of the first is higher: 9.9 for the first, 9.57 for the second.

Compared with “GTGCTAAAAGTATATGCACACACATATATATGCACA [CACACA_site8472]”, “AATATTTTATATAAATGTACATTTATGAATAATATA [XGTACX_site8477]” is lower in “gcPBM binding intensity (ln)” value: 10 for the first, 9.55 for the second.

Compared with “ACAAAGTAAAATAATGCATGTAGGTATACATAATTA [TGCATGCA_site607]”, “TGTTCATTTATTTACTTACACACTTTATATATGTGG [CACACA_site1410]” is higher in “gcPBM binding intensity (ln)” value: 9.86 for the first, 9.99 for the second.

Compared with “TAAAAGTAGATATATACACACATAAATATAGATGTA [CACACA_site6457]”, “ACATATTTCCAATAATGTACATACAAAATAAGAATG [XGTACX_site2659]” is lower in “gcPBM binding intensity (ln)” value: 9.89 for the first, 9.67 for the second.

First: AAAAATAAAAAGAATTGTACATATAAATCATATACA [XGTACX_site6860]
Second: GACCCAATGAAAAGGTCACACATTTTTTCTTTTCGA [CACACA_site5074]
The “gcPBM binding intensity (ln)” value of the first is higher: 9.72 for the first, 9.49 for the second.

Compared with “TAAAAATATATAAACAGTACATAAATTAAATAAATA [XGTACX_site6962]”, “TTTTTTCTTTAATACTCAATATGATAAAAGTAACAC [XGTACX_negctrl_site163]” is lower in “gcPBM binding intensity (ln)” value: 9.79 for the first, 9.31 for the second.

Compared with “GTTAAAATTTGTCAATGTACAGAAATAATAAAAAAA [XGTACX_site1879]”, “AAAGTTTTTACCAAGTGTACATATATATATATATAT [XGTACX_site5786]” is higher in “gcPBM binding intensity (ln)” value: 9.59 for the first, 9.73 for the second.

Compared with “TATTTTTTTTAGCGTACATGCAAAAAAAAAAAAAAA [TGCATGCA_site555]”, GTTTATTTATTTTATGTGCACATATAACAAAAAAAA is higher in “gcPBM binding intensity (ln)” value: 9.08 for the first, 9.57 for the second.

Compared with “ATTTTTTTTTTTATAGTGGAACCACATTTGCCATTT [CACACA_negctrl_site1247]”, “TATTAAATGAAACAAACACACATAGCCTTTAAATAT [CACACA_site1560]” is higher in “gcPBM binding intensity (ln)” value: 9.49 for the first, 9.91 for the second.

First: TTAGGACAAAAAAAAATAAAAATAAAATAAAATAAT [CACACA_negctrl_site1613]
Second: AAATTATATATATTTACATGCAATATAATGAAATAA [TGCATGCA_site229]
The “gcPBM binding intensity (ln)” value of the first is lower: 9.61 for the first, 9.65 for the second.

Going from “ATAAAATAAAACAGAGCACACATTTTATTTACATTC [CACACA_site696]” to “ATATATATATCATATTGTACATATTATTGTATAATC [XGTACX_site5020]”, the “gcPBM binding intensity (ln)” value falls from 9.79 to 9.74.

Compared with “TTGTTTTTAAGAAAAACACACACTCCTGTTATTTTA [CACACA_site9230]”, “AAATATTATACAAAAAAAAAAAAAAAAAAAATATAT [CACACA_negctrl_site52]” is lower in “gcPBM binding intensity (ln)” value: 9.76 for the first, 9.58 for the second.

Compared with “ATTTTGTATATATTTTGTACATATTTTGTATATATT [XGTACX_site885]”, “GTATGTATAATATACACACTCACAAGCATTCAAATA [CACACA_site267]” is lower in “gcPBM binding intensity (ln)” value: 9.8 for the first, 9.76 for the second.

First: ATATAAACATGTTTGTGTACGTAATATGAAAAATAA [XGTACX_site8157]
Second: ATAGCCAAAAATCATGCACACCTAAAAAAAAAAAAA [CACACA_site8826]
The “gcPBM binding intensity (ln)” value of the first is higher: 9.75 for the first, 9.65 for the second.

First: TATATTTATGTATATGTGCACATAAATTTAAGAATG [GTGCAC_site9512]
Second: ATTTTTAATCATTTACAACCTAGTGATTATACAAAT [CACACA_negctrl_site1089]
The “gcPBM binding intensity (ln)” value of the first is higher: 9.7 for the first, 9.57 for the second.

Compared with “CGTATGCGTATATACACACCCACGTATATATATAAA [CACACA_site3200]”, “ATATAATAATTGTACACATGCACACACAAATATTAT [TGCATGCA_site204]” is higher in “gcPBM binding intensity (ln)” value: 9.66 for the first, 10.1 for the second.

First: TTCATTTTAATAATATGTACATAATATATTTAAAAA [XGTACX_site634]
Second: GTATATATATTTGTACGTACATATTGTTGTAAACAC [XGTACX_site8833]
The “gcPBM binding intensity (ln)” value of the first is lower: 9.38 for the first, 9.92 for the second.

First: AAGAGAGACATCAACACACATACGTATGTATAGAAA [CACACA_site1397]
Second: TTTTTTATTGTGATACGTATATTATTTTATGATTAA [GTGCAC_negctrl_site202]
The “gcPBM binding intensity (ln)” value of the first is higher: 10.1 for the first, 9.64 for the second.

Going from “GGGGGTAGGGGAAGAAGTACAATGATCACTACAGTA [XGTACX_site1169]” to “TTAAGTCATAAATAAAGTACATAAATATAATATATA [XGTACX_site6304]”, the “gcPBM binding intensity (ln)” value rises from 9.59 to 9.63.

With “ATGTAAATGTTATTATGTACATATTTATTCTTCAAA [XGTACX_site7377]” the “gcPBM binding intensity (ln)” value was 9.66.
